These are yes or no findings as the source states them, for the method shown. Binding seen in cells or lysates may run through a third protein. Some results given as binding are weak or reduced against the parent protein; the word gives no strength. For some of these results: Where a sequence is shown, tags or fusion partners need not be part of it.
Columns and labels:
[1] = target: T1, Myc-tagged SHARPIN (human) (UniProt Q9H0F6); experiment: co-IP; Myc-tagged LUBAC subunits or HOIP mutants co-expressed with FLAG-tagged CBM components and/or FLAG-OTULIN in HEK293T cells; NP-40 buffer (20 mM Tris-HCl pH 7.4, 0.2% NP-40, 150 mM NaCl); anti-Myc immunoprecipitates on protein G agarose, immunoblotted
T1 sequence: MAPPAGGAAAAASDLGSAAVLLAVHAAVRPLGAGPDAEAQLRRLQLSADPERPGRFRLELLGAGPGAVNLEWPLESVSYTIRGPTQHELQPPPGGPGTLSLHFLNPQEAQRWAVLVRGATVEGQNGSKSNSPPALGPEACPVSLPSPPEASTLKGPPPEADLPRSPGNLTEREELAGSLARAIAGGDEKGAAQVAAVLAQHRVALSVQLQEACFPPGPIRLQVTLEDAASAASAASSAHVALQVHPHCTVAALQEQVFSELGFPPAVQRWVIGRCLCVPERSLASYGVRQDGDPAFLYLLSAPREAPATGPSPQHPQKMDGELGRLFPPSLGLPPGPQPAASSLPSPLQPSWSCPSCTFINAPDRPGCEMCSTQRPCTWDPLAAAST

By UniProt entry, the sequences of proteins in these tests, tags left out. Where a name states a change or a piece, a line headed by the entry shows the natural chain unless it says otherwise. Chains listed by the source or under a name are the forms on record and can include a tag or linker. Residues count along the entry.
UniProt Q96EP0: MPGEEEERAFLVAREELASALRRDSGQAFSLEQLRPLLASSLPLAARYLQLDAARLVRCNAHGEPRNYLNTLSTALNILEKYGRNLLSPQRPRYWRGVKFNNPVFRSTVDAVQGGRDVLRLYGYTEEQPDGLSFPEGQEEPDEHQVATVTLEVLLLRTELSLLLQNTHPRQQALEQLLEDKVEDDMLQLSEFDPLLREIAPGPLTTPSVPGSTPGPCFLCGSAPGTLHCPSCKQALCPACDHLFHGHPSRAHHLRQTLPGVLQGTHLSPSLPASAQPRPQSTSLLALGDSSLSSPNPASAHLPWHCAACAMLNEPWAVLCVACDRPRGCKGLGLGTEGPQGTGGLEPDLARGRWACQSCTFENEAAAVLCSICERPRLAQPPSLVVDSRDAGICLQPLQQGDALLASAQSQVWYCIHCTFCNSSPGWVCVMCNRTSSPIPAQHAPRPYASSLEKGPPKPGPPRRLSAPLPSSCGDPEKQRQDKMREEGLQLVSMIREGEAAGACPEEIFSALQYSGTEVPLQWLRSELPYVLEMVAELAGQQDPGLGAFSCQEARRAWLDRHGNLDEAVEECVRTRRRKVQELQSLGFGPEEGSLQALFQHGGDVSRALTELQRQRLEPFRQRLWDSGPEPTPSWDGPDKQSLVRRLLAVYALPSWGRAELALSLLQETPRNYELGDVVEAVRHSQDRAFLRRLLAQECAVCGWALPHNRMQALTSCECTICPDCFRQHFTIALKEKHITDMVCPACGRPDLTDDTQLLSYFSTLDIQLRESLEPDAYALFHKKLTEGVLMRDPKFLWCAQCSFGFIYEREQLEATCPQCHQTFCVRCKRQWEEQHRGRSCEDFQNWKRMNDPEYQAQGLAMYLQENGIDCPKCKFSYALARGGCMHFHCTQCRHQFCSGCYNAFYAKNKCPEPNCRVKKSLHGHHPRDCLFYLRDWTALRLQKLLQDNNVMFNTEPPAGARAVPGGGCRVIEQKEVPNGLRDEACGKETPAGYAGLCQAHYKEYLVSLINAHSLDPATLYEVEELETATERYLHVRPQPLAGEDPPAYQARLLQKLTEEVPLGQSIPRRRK
Myc-tagged HOIP, PUB domain-deleted mutant: residues 165-1072 of Q96EP0
UniProt Q9BYM8: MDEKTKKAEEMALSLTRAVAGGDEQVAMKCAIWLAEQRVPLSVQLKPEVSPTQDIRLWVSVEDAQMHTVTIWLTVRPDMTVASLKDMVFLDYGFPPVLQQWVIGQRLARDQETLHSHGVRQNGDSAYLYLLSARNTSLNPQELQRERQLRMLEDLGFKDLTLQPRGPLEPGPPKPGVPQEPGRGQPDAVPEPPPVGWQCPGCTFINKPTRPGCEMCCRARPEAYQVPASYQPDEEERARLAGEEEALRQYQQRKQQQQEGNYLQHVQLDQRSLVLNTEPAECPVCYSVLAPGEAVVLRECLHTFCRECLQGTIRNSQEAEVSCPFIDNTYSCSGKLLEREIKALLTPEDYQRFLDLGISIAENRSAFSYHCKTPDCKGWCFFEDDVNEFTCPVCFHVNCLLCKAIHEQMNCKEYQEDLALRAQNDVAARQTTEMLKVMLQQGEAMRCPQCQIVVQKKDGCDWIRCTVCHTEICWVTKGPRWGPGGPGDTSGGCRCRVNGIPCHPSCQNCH
UniProt Q9UDY8: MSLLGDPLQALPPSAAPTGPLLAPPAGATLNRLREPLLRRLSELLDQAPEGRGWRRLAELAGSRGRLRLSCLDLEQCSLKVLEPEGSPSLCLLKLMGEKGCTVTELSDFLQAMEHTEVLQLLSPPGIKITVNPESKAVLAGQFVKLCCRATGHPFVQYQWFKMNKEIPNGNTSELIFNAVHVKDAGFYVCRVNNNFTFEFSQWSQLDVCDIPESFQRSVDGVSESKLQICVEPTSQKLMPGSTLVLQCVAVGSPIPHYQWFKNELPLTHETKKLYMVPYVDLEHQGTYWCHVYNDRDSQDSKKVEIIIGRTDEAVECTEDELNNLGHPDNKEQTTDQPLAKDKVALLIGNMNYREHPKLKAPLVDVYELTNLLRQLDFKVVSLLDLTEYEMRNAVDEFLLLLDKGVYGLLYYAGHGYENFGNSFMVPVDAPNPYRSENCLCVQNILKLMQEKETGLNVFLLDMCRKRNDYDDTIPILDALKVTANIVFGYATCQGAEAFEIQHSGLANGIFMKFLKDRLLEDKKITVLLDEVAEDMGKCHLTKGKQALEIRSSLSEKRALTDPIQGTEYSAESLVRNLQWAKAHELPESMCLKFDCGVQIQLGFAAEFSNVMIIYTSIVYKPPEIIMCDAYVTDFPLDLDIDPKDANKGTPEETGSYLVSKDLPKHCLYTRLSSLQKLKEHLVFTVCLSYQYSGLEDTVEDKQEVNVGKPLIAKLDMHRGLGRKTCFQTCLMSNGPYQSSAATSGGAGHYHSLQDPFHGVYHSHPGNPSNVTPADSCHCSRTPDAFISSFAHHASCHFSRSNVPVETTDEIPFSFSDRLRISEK
UniProt Q96BN8: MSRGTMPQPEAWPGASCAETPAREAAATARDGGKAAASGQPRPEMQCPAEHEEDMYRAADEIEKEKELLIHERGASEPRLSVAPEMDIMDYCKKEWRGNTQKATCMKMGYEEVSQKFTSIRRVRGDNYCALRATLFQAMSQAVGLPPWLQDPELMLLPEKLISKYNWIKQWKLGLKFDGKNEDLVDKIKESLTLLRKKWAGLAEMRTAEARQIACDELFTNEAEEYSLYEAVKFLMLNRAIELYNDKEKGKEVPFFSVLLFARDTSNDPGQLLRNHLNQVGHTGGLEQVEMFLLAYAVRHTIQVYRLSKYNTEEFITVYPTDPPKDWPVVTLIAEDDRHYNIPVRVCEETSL

[2] = target: Myc-tagged HOIP Y82A/N85E/N102A (human) (UniProt Q96EP0); experiment: as above
[3] = target: Myc-tagged HOIL-1L (human) (UniProt Q9BYM8); experiment: as above
[4] = target: Myc-tagged HOIP, wild type (human) (UniProt Q96EP0); experiment: as above
[5] = target: Myc-tagged HOIP, PUB domain-deleted mutant (human) (UniProt Q96EP0); experiment: as above
[6] = target: endogenous MALT1 (CBM complex subunit) of Jurkat cells (human (endogenous in Jurkat)) (UniProt Q9UDY8); experiment: co-IP; endogenous proteins; Jurkat cell lysates immunoprecipitated with anti-MALT1 antibody or normal mouse IgG, immunoblotted

| binding [1] | binding [2] | binding [3] | binding [4] | binding [5] | binding [6] | Substance |
| --- | --- | --- | --- | --- | --- | --- |
| no binding | binds | no binding | binds | no binding |  | FLAG-tagged MALT1, wild type (from UniProt Q9UDY8 1-824) |
|  |  |  |  |  | binds | endogenous HOIP (LUBAC subunit) of Jurkat cells (from UniProt Q96EP0 1-1072) |
|  |  |  |  |  | binds | endogenous OTULIN of Jurkat cells (from UniProt Q96BN8 1-352) (enzyme) |

Source: paper PMC7732508
